As usually defined, the % Inhibition is the relative decrease from the control value, in per cent.

The results in this text go back to ChEMBL document CHEMBL4888484, “Replenishing the malaria drug discovery pipeline: Screening and hit evaluation of the MMV Hit Generation Library 1 (HGL1) against asexual blood stage Plasmodium falciparum ,using a nano luciferase reporter read-out” (2022).

The campaign covered roughly 150,000 compounds. About 540 (0.36%) showed an effect of 50% or more. This is one part of the list.

The test system of this assay is Plasmodium falciparum. Put plainly: Primary screen in NF54 nanoGlo assay, in single point, at 2uM, 72h; a lower Z score goes with more inhibition. It is filed as functional, Erythrocyte. Particulars: timepoint 72 hour.
Consider `C[C@@H](CNC(=O)c1cncc(-c2ccc3c(c2)CCO3)c1)Cn1ccnc1`, for which the “% Inhibition” value turned out to be 1% and the Z score was -0.06.
The matching figures for `COc1ccccc1OS(=O)(=O)[C@H]1CCCN(C(=O)C2CCCC2)C1`: 10% and -1.3.
The matching figures for `O=C(Cn1c(=O)c(N2CCCCC2)nc2ccccc21)Nc1ccccc1`: -7% and 0.7.
On the same counts, the results for `O[C@H]1CN[C@H](c2nc(-c3ccc4c(c3)OCO4)no2)C1` are -6% and 0.94.
For `O=C(NCC1CCN(Cc2ccco2)CC1)c1ccc(Cl)cc1Cl`, the “% Inhibition” value was -7% and the Z score amounted to 1.13.
Regarding `CCOc1ccc(-c2cc(C(=O)NC[C@H]3CCCO3)cc3cc(OC)c(OC)cc23)cc1`, the “% Inhibition” value was found to be 10% and the Z score is on record as -2.
On the same counts, the results for `O=C(c1ccc2cccc(Cl)c2n1)N1CCC2(CCCC2)C1` are -2% and 0.3.
On the same counts, the results for `CC(=O)Nc1cc(-c2ccoc2)nn1-c1ccccc1` are -14% and 2.22.
On the same counts, the results for `CC(C)CN(C(=O)[C@@H]1COCCO1)C1CC1` are 10% and -1.2.
Take `O=C(COc1ccc(C(=O)O)cc1Br)NC1CCCC1`: the “% Inhibition” value is -3% and the Z score is 0.56.
On the same counts, the results for `O=C(OC1CCCCC1)c1ccc2c(c1)C(=O)N(c1cc(Cl)ccc1Cl)C2=O` are -4% and 0.54.
Regarding `CCN(CCC(F)(F)F)C(=O)c1ccc(C)c(F)c1`, the “% Inhibition” value is reported as -4% and the Z score is recorded as 0.42.
On the same counts, the results for `O=C(CCc1nccs1)N1CC2(CCOC2)C1` are -8% and 1.4.
Consider `C=C1C(C(=O)Nc2ccc(OCc3ccccc3)cc2)C1C(=O)Nc1ccc(OCc2ccccc2)cc1` (stereo unspecified), for which the “% Inhibition” value came out at 1% and the Z score is -0.1.
Take `CC1CCN(S(=O)(=O)c2ccc3c(ccc(=O)n3CC(=O)N3CCCC3)c2)CC1`: the “% Inhibition” value is given as -5% and the Z score stood at 0.65.
On the same counts, the results for `Cc1ncc(CN2CCN(Cc3cnc(C)nc3)[C@@H](CO)C2)cn1` are -7% and 0.88.
The matching figures for `Cc1ccoc1-c1nnc(CNC(C)C(C)n2cccn2)o1` (stereo unspecified): -5% and 0.62.
With `Cc1noc(C)c1CC(=O)NS(=O)(=O)N1CCc2ccccc2C1`, the “% Inhibition” value is on record as 4% and the Z score was -0.68.
The matching figures for `Cc1c(Cl)cccc1NC(=O)CCNc1ncnc2onc(C)c12`: 9% and -1.01.
The matching figures for `CCc1nn(-c2ccc(OC)cc2)c(Oc2ccccc2C)c1CCC(=O)NCc1cccnc1`: 19% and -2.1.
The matching figures for `C[C@@H](CN1CCCC1=O)NC(=O)Nc1ccncc1F`: -5% and 0.69.
Consider `COCc1cc(-c2nc3c([nH]2)CCCNC3=O)n[nH]1`, for which the “% Inhibition” value is on record as -8% and the Z score is 1.54.
The matching figures for `CCn1cc(CNC(=O)C2NCCC3CCCCC32)nn1` (stereo unspecified): -3% and 0.54.
The matching figures for `NC(=O)c1c(NC(=O)Cn2nnc3ccccc32)sc2c1CCC2`: -14% and 1.22.
The matching figures for `CCOc1cc(N2CC3(CC(OC)(OC)C3)[C@@H]2C(C)C)ncn1`: -10% and 1.23.
With `CNC(=O)CCC(C)(C)NC(=O)c1ccc(CCC(C)(C)O)cc1`, the “% Inhibition” value is reported as -13% and the Z score is recorded as 1.88.
With `COc1ccc(NC(=O)[C@H](C2CCCC2)N2CCN(C(=O)C(C)(C)C)CC2)cc1`, the “% Inhibition” value came to 1% and the Z score was -0.21.
The matching figures for `CCCc1noc(CN2N=C(C(=O)N3CCC(C)CC3)S(=O)(=O)c3ccc(C)cc32)n1`: 2% and -0.26.
On the same counts, the results for `COc1nc2c(cc1CNC(=O)CCc1ccco1)C(=O)N(C1CCCC1)C2` are -2% and 0.26.
The matching figures for `Cc1nc2c(n1CCO)CC[C@H](NC(=O)c1cnc3n1CCCC3)C2`: -11% and 1.17.
Turning to `O=C1c2nccnc2C(=O)N1c1cccc2ccccc12`, the “% Inhibition” value is -12% and the Z score is given as 1.82.
The matching figures for `Clc1ccc(NC[C@H]2CCCN2)c(Cl)c1`: 1% and -0.1.
In the case of `Cc1nc(O)nc(C)c1CCC(=O)N1CC[C@H]1c1ccc(F)cc1`, the “% Inhibition” value was -1% and the Z score is reported as 0.23.
The matching figures for `CCN(CC)Cc1cn2ccccc2c1C#N`: -12% and 1.72.
`O=c1scc(C(F)(F)F)n1Cc1sc2ccccc2c1Cl`: the “% Inhibition” value was 2% and the Z score is -0.34.
The matching figures for `C[C@H](NC(=O)c1cc(O)ccc1C(F)(F)F)C(=O)N(C)C`: -7% and 0.57.
The matching figures for `CCOc1ccccc1CN1CCC(F)(C(=O)NC2CC2)CC1`: -3% and 0.38.
On the same counts, the results for `CCCNC(=O)CCc1nc(N2CCCCC2)c2c(CC)noc2n1` are -12% and 1.91.
`Cc1cccc2cc(-c3noc(C(C)C)n3)c(NCc3ccc(N(C)C)cc3)nc12`: the “% Inhibition” value is -13% and the Z score is 1.94.
For `COc1cc(C(=O)N(C)[C@H]2CCCN(CCCc3ccccc3)C2)ccc1C`, the “% Inhibition” value is on record as -10% and the Z score was 1.35.
On the same counts, the results for `O=C1CCC(N2C(=O)C3CCCC3C2=O)C(=O)N1` (stereo unspecified) are -12% and 1.48.
Consider `O=C1CNC(=O)N1c1cccc(NS(=O)(=O)c2cccc(Cl)c2)c1`, for which the “% Inhibition” value is listed as -4% and the Z score worked out at 0.53.
Regarding `O=c1[nH]c2cccnc2n1[C@@H]1CCN(Cc2ccc(C(F)(F)F)cc2)C1`, the “% Inhibition” value is -16% and the Z score is recorded as 2.12.
